# Out of some 410,000 compounds screened, about 6,400 (1.6%) were called active. Inconclusive means that the source gave no clear call. Such entries were picked first, then a sample of the others. Calls follow the shape of the dose curve; as a rule, active = well fitted inhibition curve with a large enough effect; inconclusive = small, poorly fitted or top-dose-only effect; inactive = no such curve, though single readings can be large or run the other way. Potencies of inconclusive entries are left out as doubtful fits.
# Biological target: Glucagon-like peptide 1 receptor (Homo sapiens) (UniProt P43220)
# UniProt P43220, sequence (P43220 whole entry, looked up): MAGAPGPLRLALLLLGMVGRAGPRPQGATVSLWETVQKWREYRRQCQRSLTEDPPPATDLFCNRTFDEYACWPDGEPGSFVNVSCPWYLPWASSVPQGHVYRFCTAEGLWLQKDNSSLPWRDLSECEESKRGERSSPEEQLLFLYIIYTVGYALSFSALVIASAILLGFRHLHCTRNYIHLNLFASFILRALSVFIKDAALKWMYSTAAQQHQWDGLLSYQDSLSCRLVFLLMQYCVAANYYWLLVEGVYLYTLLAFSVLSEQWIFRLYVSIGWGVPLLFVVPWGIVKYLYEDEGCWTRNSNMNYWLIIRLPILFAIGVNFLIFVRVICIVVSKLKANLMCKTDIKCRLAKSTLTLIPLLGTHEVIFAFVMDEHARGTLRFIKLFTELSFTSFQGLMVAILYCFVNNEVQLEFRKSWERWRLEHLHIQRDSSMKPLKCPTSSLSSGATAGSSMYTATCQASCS
# Assay: qHTS of GLP-1 Receptor Inverse Agonists (Inhibition Mode); also: nearly all actives have a fitted effect of over 55% in size
# Settings: HEK293 GLP-1R CRE-luciferase, luminescence, 24 h, GLP-1R form is constitutively active; activity change, negative = inhibition: at 38.3 µM (top of the series) unless noted
# How it was run: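 Readout was luciferase luminescence, measured 12 min after detection reagent at room temperature. Beforehand, GLP-1R reporter HEK293 cells had sat 12 h, then received compounds for 24 hr at 37 deg C.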
# % is scaled to controls: 0 for no effect and ±100 for the full control effect; potency is read from the fitted curve at half-maximal effect; tags tell the direction and shape of the fitted curve.
SMILES,Potency,"activity change, negative = inhibition"
COc1cc(/C=N/NC2=NS(=O)(=O)c3ccccc32)ccc1OC(C)=O,"inconclusive [inhibitor, partial curve, poor fit]",–
C=CCn1cnc2scc(-c3ccc(C)cc3)c2c1=O,"inconclusive [inhibitor, single point]",–
Cc1nn(-c2ccccc2)c(Cl)c1C(=O)N1CCN(C)CC1,–,inactive: 27.8%
CC(C)c1ccc(C(C(=O)NC2CCCC2)N(C(=O)c2csnn2)C2CC2)cc1 (stereo not drawn),"inconclusive [inhibitor, single point]",–
CCCCOC(=O)Nc1cc(C)c(Cl)cc1OC,"inconclusive [inhibitor, single point]",–
COC(=O)c1ccc(OCCN2C3=NCCN3c3ccccc32)cc1,"inconclusive [inhibitor, full curve]",–
COc1ccc(C(C)(C)C)cc1NS(=O)(=O)c1cccc2cccnc12,–,inconclusive: -69% [inhibitor]
CSc1ccc(CN(C)C(C)C(=O)NCc2ccccc2)cc1 (stereo not drawn),"inconclusive [inhibitor, single point]",–
CC(C)(C)c1ccc(OCC(O)CN2CCCC2)cc1 (stereo not drawn),–,inconclusive: -42.4% [inhibitor]
CC(C)(C)CC(C)(C)NC(=O)Nc1cccc([N+](=O)[O-])c1,"inconclusive [inhibitor, partial curve, poor fit]",–
COc1ccc(Oc2c(Cl)cnn(-c3ccc(Cl)c(Cl)c3)c2=O)cc1,"inconclusive [inhibitor, single point]",–
O=C(C1=C[C@H](C2CCCCC2)C[C@H](OCCCCO)O1)N1CCN(Cc2ccccc2)CC1,"inconclusive [inhibitor, single point]",–
Cc1ccccc1NC(=O)CCn1cnc2onc(-c3ccc(F)cc3)c2c1=O,–,inactive: -25.7%
ONC(=Nc1ccccc1Cl)c1c(F)cccc1F,"inconclusive [inhibitor, single point]",–
COC(=O)C1=CN(C2CC2)C=C(C(=O)OC)C1c1ccc(C(F)(F)F)cc1,"inconclusive [inhibitor, full curve, poor fit]",–
COC(=O)[C@@]1(Cc2ccccc2)[C@H]2C(=O)N(Cc3ccccc3)C(=O)[C@H]2[C@H]2CN=C(SCc3ccc(Cl)cc3)N21,"inconclusive [inhibitor, single point]",–
CCOC(=O)c1c(-c2ccccc2)oc2ccc(NS(=O)(=O)c3ccc(C)cc3C)cc12,"inconclusive [inhibitor, single point]",–
Cc1cccc(NC(=O)CCOc2ccccc2)c1C,"inconclusive [inhibitor, partial curve, poor fit]",–

# Source: PubChem BioAssay AID624417 (National Center for Advancing Translational Sciences (NCATS), 2012)
